Activation data for 85 molecules are collected here from PubChem BioAssay AID1346428 (National Center for Advancing Translational Sciences (NCATS), 2018).

The structures appear in SMILES notation. About 1,200 (2.5%) of roughly 48,000 compounds were called active. About 2% were inconclusive and are not listed.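 How the source made its calls: active means activation of at least 60% and not above a set upper limit (about 1 call in 100 departs from these limits); inconclusive means activation of 40% to 60%, or above that upper limit; inactive means activation under 40%.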 The list shows a part of the results.

UniProt O75388, sequence (O75388 whole entry, looked up, the tested form may be a part): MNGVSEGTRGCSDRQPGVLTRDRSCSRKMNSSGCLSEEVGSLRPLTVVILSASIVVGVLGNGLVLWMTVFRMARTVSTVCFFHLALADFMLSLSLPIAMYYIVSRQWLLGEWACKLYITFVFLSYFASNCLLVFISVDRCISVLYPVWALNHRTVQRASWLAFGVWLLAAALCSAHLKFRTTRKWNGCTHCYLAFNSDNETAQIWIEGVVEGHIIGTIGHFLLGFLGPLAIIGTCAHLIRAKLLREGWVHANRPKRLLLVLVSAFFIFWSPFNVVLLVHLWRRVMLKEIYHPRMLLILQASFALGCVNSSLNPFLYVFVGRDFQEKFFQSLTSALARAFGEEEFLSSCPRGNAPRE

The target in this test is Probable G-protein coupled receptor 32 (Homo sapiens) (UniProt O75388). In words: qHTS for Agonists of Human Resolvin D1 Receptor DRV1. Further: 0% is about no effect. Particulars: CHO-K1 GPR32 beta-arrestin PathHunter luminescence, 90 min; at 76.9 µM; hits give high values; zero percent set by DMSO-only wells. In short, it runs like this:
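GPR32 activation in stably transfected CHO-K1 cells, detected as beta-arrestin recruitment by enzyme-fragment complementation. Compound exposure: 90 min, 37 °C.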
Background: In qHTS, concentration-response curves come from the screen itself.
Regarding `COc1cccc(C2C(=O)N(C3CCCCC3)CC(=O)N2CCc2ccc(OC)c(OC)c2)c1` (stereo not given), the activation is inactive: -13%.

As for `CCc1ccc2c(c1)c(=O)c(S(=O)(=O)c1ccc(F)cc1)cn2CC(=O)Nc1ccccc1OC`, the activation is inactive: -12.6%.

Take `Cc1ccc(NC(=O)c2oc3ccccc3c2NC(=O)C2CCCCC2)cc1`: the activation was inactive: -4.5%.

With `COc1ccc(-c2cc(C(=O)Oc3ccc(Br)cc3)c3ccccc3n2)cc1`, the activation is inactive: -20%.

Regarding `COc1ccc(Br)cc1CNCc1c(C(=O)O)c(C)n(Cc2ccccc2C)c1C`, the activation is inactive: -2.06%.

As for `c1ccc2c(c1)CCc1ccccc1N2`, the activation was active: 119%.

Regarding `CCOc1ccc(-c2cc3nc(C4CCN(C(=O)OC(C)(C)C)CC4)c(C(=O)Nc4cccc(C(F)(F)F)c4)cn3n2)cc1`, the activation is inactive: -6.05%.

For `Cc1nc2cccnc2n1-c1cccc(C(=O)NCc2cccc(Cl)c2)c1`, the activation was inactive: 8.86%.

For the molecule `CCCCCOC(=O)CSc1nc2sc3c(c2c(=O)n1Cc1ccccc1)CC(C)(CC)OC3` (stereo not given), the activation was inactive: -14.8%.

For the molecule `CCS(=O)(=O)N1CC(=O)N(c2cc(Cl)ccc2C)C(C)(C(=O)NC2CCCCCC2)C1` (stereo not given), the activation is inactive: 12.6%.

Consider `Cc1cc2c(cc1S(=O)(=O)CCC(=O)N1CCN(c3ccccc3)CC1)OCC(=O)N2`, for which the activation is inactive: -10.2%.

On to `Cc1ccc(-n2c(=O)c3c4c(sc3n(CC(=O)C(C)(C)C)c2=O)CCCCC4)cc1C`, for which the activation is inactive: -2.52%.

As for `COc1cc(Cl)c(NS(=O)(=O)c2cc3[nH]c(=O)c(=O)[nH]c3cc2C)c(OC)c1`, the activation is inactive: -12.3%.

Regarding `COc1cccc(C(=O)NC2=NC(c3ccccc3F)CC(=O)N2)c1` (stereo not given), the activation was inactive: -18.9%.

Turning to `CC(C)NCC(O)COc1ccc(CC(N)=O)cc1` (stereo not given), the activation was inactive: 0.239%.

As to `COc1ccc(-c2nc3scc(CCNS(=O)(=O)c4cccs4)n3n2)cc1`, the activation is inactive: 19.9%.

For the molecule `COc1ccc(CNC(=O)CCc2c(C)nn(-c3ccc(N4CCCC4)nn3)c2C)cc1`, the activation was inactive: -8.15%.

Consider `CCOC(=O)Cc1ccc(NC(=O)Nc2nnc(N3CCCCC3C)s2)cc1` (stereo not given), for which the activation was inactive: 25%.

Consider `O=C(Nc1ccc2c(c1)CCCN2C(=O)c1cccs1)c1ccccc1C(F)(F)F`, for which the activation is inactive: -14.6%.

Consider `COC(=O)c1ccc(NC(=O)c2c(-c3ccccc3)c(-c3ccccc3)nn(C)c2=O)cc1`, for which the activation is inactive: -16.7%.

On to `CCC(=O)N1CCc2cc(Br)cc(S(=O)(=O)NCCc3ccc(C)cc3)c21`, for which the activation was inactive: -6.19%.

Regarding `CCCN(C(=O)c1cc2c(s1)-c1ccccc1OC2)c1ccc(C(C)C)cc1`, the activation is inactive: -3.02%.

Take `Cc1cccc(OC(=O)c2snnc2C)c1C`: the activation was inactive: -0.268%.

On to `CCOC(=O)c1ccc(NC(=O)Nc2cc3c(cc2N2CCCCC2)n(CC)c(=O)n3CC)cc1`, for which the activation is inactive: -9.45%.

For `CCc1ccc(Nc2nc(-c3cc4cccc(OC)c4oc3=O)c(CC)s2)cc1`, the activation was inactive: -35.2%.

As for `COc1ccc(NC(=O)c2c(C)oc3ccc(O)c(CN4CCN(C)CC4)c23)cc1Cl`, the activation is inactive: 20.1%.

Consider `O=C(Nc1c(C(=O)N2CCN(c3ccc(F)cc3)CC2)oc2ccccc12)c1ccco1`, for which the activation is inactive: -24.1%.

Take `Cc1ccc(-c2nnc(Nc3ccc(C(N)=O)cc3)c3ccccc23)cc1S(=O)(=O)N1CCCCC1`: the activation was inactive: -5.71%.

With `CCOC(=O)C1CCCN(CCC(=O)Nc2ccc(OC)cc2OC)C1` (stereo not given), the activation was inactive: -9.62%.

As to `COc1cccc(N2CCN(S(=O)(=O)c3ccc(-c4cnc(C5CC5)o4)cc3)CC2)c1`, the activation is inactive: 9.72%.

As to `COc1ccc(CCNC(=O)c2ccc(CS(=O)(=O)c3ccc(C)cc3)o2)cc1OC`, the activation was inactive: 34.9%.

With `CCCc1nn2c(=O)cc(COC(=O)c3ccc(NC(=O)c4cccs4)cc3)nc2s1`, the activation is inactive: -23.3%.

As for `CCc1ccc(NC(=O)CSC2=Nc3ccccc3C3=NC(CCC(=O)NCc4cccs4)C(=O)N23)cc1` (stereo not given), the activation is inactive: -28.5%.

On to `O=C(CSc1nc2ccccc2n1Cc1ccc(F)c(Cl)c1)N1CCN(c2ccc(F)cc2)CC1`, for which the activation is inactive: -2.46%.

Turning to `Cc1cccc(-n2ccnc2SCC(=O)Nc2ccccc2C(F)(F)F)c1`, the activation was inactive: -8.26%.

In the case of `CCn1cc(C(=O)NCCc2ccccc2)c(=O)c2cc(S(=O)(=O)N3CCOCC3)ccc21`, the activation was inactive: -7.62%.

Take `COc1ccc(CNC(=O)CCc2c(C)nc3c(c2C)c(=O)n(C)c(=O)n3C)cc1`: the activation is inactive: -8.46%.

Regarding `CCC(=O)N1CCc2cc(S(=O)(=O)NC(C(=O)NCc3ccc(OC)cc3)C(C)C)ccc21` (stereo not given), the activation was inactive: -4.99%.

Turning to `Cc1ccc(Cn2c(C)c(CNC3CCCCC3)c(C(=O)O)c2C)cc1`, the activation is inactive: -9.59%.

`COc1cc(CN2CCc3nc(Nc4ccc5c(c4)OCCO5)ncc3C2)cc(OC)c1OC`: the activation was active: 96.6%.

Regarding `CCOC(=O)c1cc2c(=O)n3ccccc3nc2n(Cc2ccco2)c1=NC(=O)c1cc(C)cc(C)c1`, the activation is inactive: -2.96%.

With `COC(=O)c1ccc(NC(=O)c2nn(C)c3c2CS(=O)(=O)c2ccccc2-3)cc1`, the activation is inactive: -4.99%.

Turning to `CCc1ccccc1NC(=O)CC(c1ccc(F)cc1)N1Cc2ccccc2C1=O` (stereo not given), the activation was inactive: -23.9%.

For the molecule `COc1ccc(CCNc2nc3c(c(=O)n(C)c(=O)n3C)n2Cc2ccc(F)cc2)cc1OC`, the activation is inactive: 7.95%.

Regarding `COc1ccc(OC)c(CCNC(=O)CCCc2nnc3n(C)c(=O)c4sccc4n23)c1`, the activation was inactive: -0.994%.

On to `COc1cccc(N2C(=O)CSC23C(=O)N(CC(=O)Nc2cc(C)ccc2C)c2ccccc23)c1` (stereo not given), for which the activation is inactive: -7.39%.

For `CC1CCN(S(=O)(=O)c2ccc3nc(-c4cccnc4)cc(C(=O)NCCCOC(C)C)c3c2)CC1`, the activation is inactive: -8.91%.

Consider `COc1ccc2[nH]cc(CCNC(=O)Nc3ccccc3C)c2c1`, for which the activation is inactive: 7.42%.

As for `CNCCc1cnc(CCC(c2ccccc2)c2ccccc2)[nH]1`, the activation was inactive: -4.89%.

For the molecule `Cc1ccc2sc(N3CCN(C(=O)C4COc5ccccc5O4)CC3)nc2c1C` (stereo not given), the activation was inactive: -6.8%.

`COc1ccc(C)cc1NC(=O)CN1CCN(CC(=O)Nc2ccccc2F)CC1`: the activation is inactive: -9.94%.

Consider `Cc1cc(C)c(NC(=O)c2sc3nc(C)cc(C)c3c2N)c(C)c1`, for which the activation is inactive: 37.5%.

Regarding `Cc1ccc(Cl)cc1NC(=O)c1oc2ccc(S(=O)(=O)N3CCC4(CC3)OCCO4)cc2c1C`, the activation was inactive: -2.11%.

Consider `Fc1ccc(CNc2nc3c(-c4ccc(F)cc4)nnn3c3ccccc23)cc1`, for which the activation is inactive: -6.7%.

For the molecule `CCCCSc1ncnc2c1sc1nc(N3CCOCC3)c3c(c12)CCCC3`, the activation was inactive: -6.52%.

With `COc1ccc(-c2noc(CSCC(=O)Nc3ccc(C)cc3Br)n2)cc1OC`, the activation is inactive: -11.5%.

As to `COc1cccc(/C=C/c2nc(C#N)c(N(C)Cc3ccccc3)o2)c1`, the activation was inactive: 19.9%.

Turning to `COCCCNC(=O)CN1C(=O)c2c(c3ccccc3n2C)C1c1ccc(OC)cc1` (stereo not given), the activation is inactive: -15.2%.

`COc1cc(C(=O)NCc2ccc3c(c2)CCN3C(=O)c2ccncc2)cc(OC)c1OC`: the activation is inactive: -12.4%.

`Cc1ccc(NC(=O)NCCc2c(C)nn(C)c2C)c(Cl)c1`: the activation was inactive: 5.94%.

`Cc1ccc(NC(=O)c2cc(-c3ccc4c(c3)OCO4)on2)cc1`: the activation is inactive: -0.8%.

Consider `CCOc1ccc(CNC(=O)COc2cc(=O)n(C)c3ccccc23)cc1`, for which the activation was inactive: 12.7%.

Regarding `CC1=C(C(=O)Nc2ccc(C)cc2)C(c2ccccc2Cl)n2nnnc2N1` (stereo not given), the activation is inactive: -2.74%.

On to `CCCN1CCN(CCCNC(=O)Cn2nc(C)n3c(cc4cc(F)ccc43)c2=O)CC1`, for which the activation was inactive: -5.44%.

Take `Cc1cccc2c1-c1sc(C(=O)NCc3ccccc3Cl)cc1CO2`: the activation is inactive: -17.9%.

For `COc1cc(NC(=O)c2ccc(C(=O)Nc3cc(OC)c(Cl)cc3OC)cc2)c(OC)cc1Cl`, the activation is inactive: -15.1%.

Regarding `COc1cccc(NC(=O)c2cc(CN3CCOCC3)on2)c1`, the activation was inactive: 6.46%.

Take `CCC(=O)N1CCc2cc(Br)cc(S(=O)(=O)CCC(=O)NCc3ccccc3)c21`: the activation is inactive: -10.2%.

Regarding `Cc1nn2c(=O)cc(COC(=O)c3ccc(C(C)(C)C)cc3)nc2s1`, the activation is inactive: -21.2%.

As for `CSc1cccc(NC(=O)CN(C)S(=O)(=O)c2ccc3c(c2)n(C)c(=O)c(=O)n3C)c1`, the activation is inactive: -6.95%.

As to `CCCCCCCCCCCCCCCC[N+](C)(C)Cc1ccccc1`, the activation is inactive: 11.8%.

For the molecule `COc1ccccc1CNC(=O)c1c2c(nc3ccccc13)C(=O)N(C1CCCCC1)C2`, the activation is inactive: -5.61%.

Consider `O=c1ccc2cc(S(=O)(=O)N3CCCC3)ccc2[nH]1`, for which the activation was inactive: -21.7%.

`COc1ccc(CNC(=O)Cc2c(C)c3ccc(O)cc3oc2=O)cc1`: the activation was inactive: 20.2%.

Consider `Cc1cccc(C)c1NC(=O)c1ccc2nc(CCc3ccccc3)oc2c1`, for which the activation was inactive: -18.8%.

With `Cc1cccc(NC(=O)c2sc3cccc(Cl)c3c2Cl)c1`, the activation is inactive: -14.1%.

For the molecule `CCCCNC(=O)CSc1c2c(nc3ccc(Cl)cc13)CCCC2`, the activation is inactive: -17.8%.

With `COc1ccc(-c2nc3ccccc3s2)cc1NC(=O)c1ccccc1OC`, the activation is inactive: -0.45%.

As for `CNC(=O)c1c(NC(=O)c2cc(=O)c3ccccc3o2)sc2c1CCC2`, the activation was inactive: -0.0766%.

Take `COc1ccc(CCNC(=O)c2ccc3c(c2)nc2n3CCOC2)cc1OC`: the activation was inactive: -6.17%.

Consider `COc1cccc(-c2cc(C(F)(F)F)nc(NCc3ccc(F)cc3)n2)c1`, for which the activation is inactive: -22.3%.

As to `COc1cccc(-c2nc(S(=O)(=O)c3ccccc3)c(NCc3ccccc3)o2)c1`, the activation is inactive: 1.29%.

Turning to `Cn1c(=O)c2sccc2n2c(CCCC(=O)Nc3ccc(F)c(F)c3)nnc12`, the activation is inactive: 1.51%.

`COCCCNC(=O)c1c(C)nn(-c2ccc(F)cc2)c1-n1cccc1`: the activation was inactive: 13.5%.

On to `CC(C)c1ccc(NC(=O)CCS(=O)(=O)c2ccc(Br)s2)cc1`, for which the activation is inactive: -0.0674%.
